Out of some 43,000 compounds screened, about 830 (1.9%) were called active. The shares of active, inactive and inconclusive entries below differ from those in the screen. The calls were made as follows: active = clear falling dose curves in both reporters; inconclusive = both reporters move, but less clearly or upward; inactive = either reporter flat; the % is the NLuc reporter signal. Potencies of inconclusive entries are left out as doubtful fits.
experiment: Cell-based coincidence reporter assay to measure PMP22 gene transcription in S16 Pmp22-F2sN cells - Primary screen; conditions: S16 Pmp22-F2sN Schwann cells (luciferase reporters placed in the Pmp22 gene), FLuc/NLuc coincidence luminescence, 24 h; measured here: NLuc reporter readout, at 57.5 µM (top of the series)
Outline: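 qHTS, 1536-well. Cells seeded, compounds added by pin tool, 24 h 37C. Nano-Glo reagent 1 (lysis/FLuc), 10 min RT, read; Stop&Glo, 10 min RT, read NLuc.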
Potency is read from the fitted curve at half-maximal effect; tags tell the direction and shape of the fitted curve.

Row | Compound | Potency
1 | COc1cccc(NC(=O)CCc2nc(-c3cc(OC)c(OC)c(OC)c3)no2)c1 | inconclusive [phenotype inactive, single point]
2 | COc1ccc(-c2c(C)nn3c(C(F)(F)F)cc(-c4ccc(Br)cc4)nc23)cc1 | inactive
3 | Cc1ccc(OCCSc2nc3ccc(NC(=O)COc4ccc(F)cc4)cc3s2)cc1 | inconclusive [phenotype inactive, partial curve, poor fit]
4 | COc1ccc(-n2c(/C=C/c3cc(OC)c(OC)cc3OC)nc3cc4ccccc4cc3c2=O)cc1Cl | inactive
5 | O=C(Cn1nc(N2CCN(c3ccccc3)CC2)ccc1=O)NCc1cccc(Cl)c1 | inactive
6 | Cc1ccc(C)c(CN2CCC(CNC(=O)Cn3ncc4c([nH]c5ccccc54)c3=O)CC2)c1 | inconclusive [phenotype inactive, partial curve, poor fit]
7 | O=C(c1cc2c(=O)[nH]c3ccccc3c2s1)N1CCN(c2ccc(F)cc2)CC1 | inconclusive [phenotype inactive, single point]
8 | O=C(CSc1nc2c([nH]c3ccccc32)c(=O)n1-c1ccccc1)c1ccccc1 | inactive
9 | CCCCN(CCCC)CCNC(=O)CN1C(=O)CSc2ccc(S(=O)(=O)N3CCCCC3)cc21 | inconclusive [phenotype inactive, single point]
10 | CCC1CCCCN1C(=O)CSc1nc2c([nH]c3ccccc32)c(=O)n1-c1cccc(OC)c1 (stereo not drawn) | inconclusive [phenotype inactive, single point]
11 | CCOc1ccc(NC(=O)C(=O)NCCc2csc3nc(-c4ccccc4F)nn23)cc1 | inconclusive [phenotype inactive, partial curve]
12 | CCc1ccc(NC(=O)C(=O)NCC(c2cccnc2)N2CCN(C)CC2)cc1 (stereo not drawn) | inconclusive [phenotype inactive, single point]
13 | Cc1nn(-c2nc(-c3ccc(F)cc3)cc(C(F)(F)F)n2)c(C)c1Cl | inconclusive [phenotype inactive, single point]
14 | Cn1ccc2c(OCC(=O)NCc3ccccc3Cl)cccc2c1=O | inconclusive [phenotype inactive, single point]
15 | Cc1oc(-c2cccc(Cl)c2)nc1CN1CCCC(C(=O)NCc2ccc(Cl)cc2)C1 (stereo not drawn) | inconclusive [phenotype inactive, partial curve]
16 | COc1ccccc1CNC(=O)CSc1ncc2c(n1)-c1cc(Cl)ccc1N(Cc1ccccc1)S2(=O)=O | inconclusive [phenotype inactive, single point]
17 | CC1CCC2(CC1)N=C(c1ccccc1)C(=O)N2CC(=O)Nc1ccc(F)c(Cl)c1 (stereo not drawn) | inconclusive [phenotype inactive, single point]
18 | COc1cc(C(=O)OCc2cc(=O)n3nc(C(C)C)sc3n2)cc(OC)c1OC | inconclusive [phenotype inactive, single point]
19 | CCc1ccc(Sc2cc(C(=O)NCCCOC(C)C)c3ccccc3n2)cc1 | inconclusive [phenotype inactive, single point]

Row | Compound | Potency
20 | CCc1ccccc1NC(=O)C1COc2ccccc2C1 (stereo not drawn) | inconclusive [phenotype inactive, single point]
21 | CCN(c1ccccc1)S(=O)(=O)c1ccc(F)c(C(=O)Nc2ccc(C)cc2)c1 | inconclusive [phenotype inactive, partial curve, poor fit]
22 | COc1ccc(CNCCSc2nnnn2-c2ccccc2)c(OC)c1 | inconclusive [phenotype inactive, single point]
23 | CCOc1ccc(/C=C(\C#N)C(=O)Nc2sc3c(c2C(=O)OC)C(C(=O)OC)CC3)cc1OC (stereo not drawn) | inactive
24 | Cc1ccc(C)c(NC(=O)CCCN2C(=O)COc3ccc(C)cc32)c1 | inconclusive [phenotype inactive, single point]
25 | O=C(NCCc1ccccc1)c1ccc2c(c1)N(Cc1ccccc1)C(=O)c1ccccc1S2=O (stereo not drawn) | inconclusive [phenotype inactive, partial curve]
26 | CCOc1ccc2c(c1)[C@@H]1C=CC[C@@H]1[C@H](c1ccccc1Cl)N2 | inconclusive [phenotype inactive, single point]
27 | CCOc1ccc(NC(=O)CN(c2ccccc2OCC)S(=O)(=O)c2ccccc2)cc1 | inconclusive [phenotype inactive, single point]
28 | Cc1ccc(NC(=O)Cn2c(=O)n(-c3ccc(C)cc3)c(=O)c3ccc(C(=O)NCc4ccccc4Cl)cc32)cc1 | active: 4.5 µM
29 | CCCn1c2ccccc2c2cnn(CC(=O)Nc3cccc(C(=O)OCC)c3)c(=O)c21 | inactive
30 | Cc1nc2cc(-c3ccccc3)nn2c(C)c1CCC(=O)NCCc1ccccc1 | inactive
31 | Cc1ccc(C(=O)N2c3ncnn3C3(CCCCC3)[C@@H]3CCCC[C@@H]32)cc1 | inactive
32 | Cc1ccc(Nc2cc(=O)[nH]c(=O)[nH]2)cc1C | inconclusive [phenotype inactive, single point]
33 | Cc1ccc(Cl)cc1NC(=O)c1cnn2c(C(F)F)cc(-c3ccccc3)nc12 | inactive
34 | CCOc1cc(CNC(=O)C2COc3ccccc3C2)cc(OCC)c1OCC (stereo not drawn) | inconclusive [phenotype inactive, single point]
35 | Cc1ccsc1CN(C(=O)COc1ccc(Br)cc1)C1CCS(=O)(=O)C1 (stereo not drawn) | inactive
36 | Cc1ccc(C)c(N2CCN(CCCNC(=O)c3cnn(-c4ccccc4Cl)c3C3CCN(C(=O)OC(C)(C)C)CC3)CC2)c1 | inconclusive [phenotype inactive, partial curve, poor fit]
37 | O=C(CCc1nc(-c2cccs2)no1)Nc1cccc([N+](=O)[O-])c1 | inactive
38 | Cc1ccc2c(Sc3ccc(Cl)cc3)c(C(=O)N3CCC(C)CC3)[nH]c2c1 | inconclusive [phenotype inactive, single point]

Reference: PubChem BioAssay AID1508649 (National Center for Advancing Translational Sciences (NCATS), 2021)
